Laboratory results: PMC4860835
These are yes or no findings as the source states them, for the method shown. In cells and extracts the contact can be indirect. Some binding calls cover weakened binding; strength is not graded here. For some of these results: Tags and fused reporters may be left off the sequences shown.

T1: ALIX (endogenous, HEK293 cells) (human (endogenous in HEK293)), Q8WUM4
T1 chain: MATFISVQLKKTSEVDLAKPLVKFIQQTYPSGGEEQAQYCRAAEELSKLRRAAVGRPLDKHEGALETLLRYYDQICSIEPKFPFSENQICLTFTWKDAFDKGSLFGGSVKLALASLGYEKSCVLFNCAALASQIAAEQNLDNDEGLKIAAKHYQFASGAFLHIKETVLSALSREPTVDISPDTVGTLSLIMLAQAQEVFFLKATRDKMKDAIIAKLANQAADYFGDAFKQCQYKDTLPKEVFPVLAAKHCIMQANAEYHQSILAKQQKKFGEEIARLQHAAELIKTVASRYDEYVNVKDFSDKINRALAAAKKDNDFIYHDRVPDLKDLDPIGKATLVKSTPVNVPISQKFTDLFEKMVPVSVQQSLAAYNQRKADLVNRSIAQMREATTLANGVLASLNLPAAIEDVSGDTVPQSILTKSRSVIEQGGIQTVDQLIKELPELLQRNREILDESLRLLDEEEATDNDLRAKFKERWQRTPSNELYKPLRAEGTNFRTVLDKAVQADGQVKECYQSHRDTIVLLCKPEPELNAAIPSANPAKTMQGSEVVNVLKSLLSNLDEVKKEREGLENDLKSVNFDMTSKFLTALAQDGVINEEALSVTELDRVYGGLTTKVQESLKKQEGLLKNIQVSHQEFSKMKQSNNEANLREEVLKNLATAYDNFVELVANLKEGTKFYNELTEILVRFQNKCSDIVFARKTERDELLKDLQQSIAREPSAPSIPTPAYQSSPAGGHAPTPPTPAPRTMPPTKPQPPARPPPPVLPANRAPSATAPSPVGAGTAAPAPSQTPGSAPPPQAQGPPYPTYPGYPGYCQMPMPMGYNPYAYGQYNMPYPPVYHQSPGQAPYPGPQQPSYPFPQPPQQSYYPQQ

B1: GST-tagged EIAV GAG protein p9, P69732 436-486 (protein)
chain: PIQQKSQHNKSVVQETPQTQNLYPDLSEIKKEYNVKEKDQVEDLNLDSLWE
B2: CHMP4B (endogenous, HEK293 cells) (protein, UniProt Q9H444 1-224)
chain: MSVFGKLFGAGGGKAGKGGPTPQEAIQRLRDTEEMLSKKQEFLEKKIEQELTAAKKHGTKNKRAALQALKRKKRYEKQLAQIDGTLSTIEFQREALENANTNTEVLKNMGYAAKAMKAAHDNMDIDKVDELMQDIADQQELAEEISTAISKPVGFGEEFDEDELMAELEELEQEELDKNLLEISGPETVPLPNVPSIALPSKPAKKKEEEDDDMKELENWAGSM
B3: GST-tagged HIV GAG protein p6, P04591 449-500 (protein)
chain: LQSRPEPTAPPEESFRSGVETTTPPQKQEPIDKELYPLTSLRSLFGNDPSSQ

How the values were obtained:
[1] = molecular target: T1, ALIX (endogenous, HEK293 cells) (human …); assay: co-IP; 1A3 anti-ALIX immunoprecipitation from HEK293 cytosol mixed with purified GST-p6 or GST-p9, incubated with GST-ALG-2 plus CaCl2 for 30 min, then 30 min with or without EGTA; only the binder purified; conditions: remark: other sources report otherwise
[2] = molecular target: ALIX (endogenous, HEK293 cells) (human (endogenous in HEK293)) (UniProt Q8WUM4); assay: co-IP; 3A9 anti-ALIX immunoprecipitation from pooled soluble (S) fractions of flotation centrifugation, 0.1% Triton X-100; HEK293 cells expressing FLAG-ALG-2 and treated with A23187 (Figure 4c) or serum-starved or EGF-stimulated (Figure 4d)
[3] = molecular target: ALIX (endogenous, HEK293 cells) (human (endogenous in HEK293)) (UniProt Q8WUM4); assay: co-IP; 3A9 anti-ALIX immunoprecipitation from pooled membrane (M) fractions of flotation centrifugation, 0.1% Triton X-100; HEK293 cells expressing FLAG-ALG-2 and treated with A23187 (Figure 4c) or serum-starved or EGF-stimulated (Figure 4d)

Row | Binder | binding [1] | binding [2] | binding [3]
1 | B1 | binds |  | 
2 | B2 |  | no binding (condition: in the soluble (S) fraction) | binds
3 | B3 | binds |  | 
